Results published in the BET-seq Pho4 binding data (Le et al. 2018).
The other results are listed elsewhere or left out. The energies were worked out here from pooled read counts, against the library average; single values are noisy.

biological target: T1, Pho4 (S. cerevisiae) (UniProt P07270); assay: relative binding free energy (BET-seq); higher = weaker binding; settings: reference: library average
T1 sequence: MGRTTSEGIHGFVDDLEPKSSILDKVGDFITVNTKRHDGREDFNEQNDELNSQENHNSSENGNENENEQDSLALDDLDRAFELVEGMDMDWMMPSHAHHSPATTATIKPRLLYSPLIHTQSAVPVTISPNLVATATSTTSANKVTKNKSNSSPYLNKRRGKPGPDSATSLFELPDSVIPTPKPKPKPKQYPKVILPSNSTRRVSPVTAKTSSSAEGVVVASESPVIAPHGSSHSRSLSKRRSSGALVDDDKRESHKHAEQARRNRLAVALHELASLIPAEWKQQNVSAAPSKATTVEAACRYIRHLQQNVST

Relative binding free energy, -0.15 kcal/mol:
GGAAGCACGTGCGGTA

Relative binding free energy, 0.22 kcal/mol:
GTCTTCACGTGTAATT
GTATTCACGTGGATTT
TATCTCACGTGTGAGT

Relative binding free energy, -0.02 kcal/mol:
GAAGCCACGTGGTGTA
AAAGACACGTGGTTAG
TGGATCACGTGGGCGT
CTTTGCACGTGTGGAT
CAGGACACGTGGGGGT
TTTAACACGTGCTGGG
AAGGGCACGTGGATGA

Relative binding free energy, 0 kcal/mol:
TGATCCACGTGTTATT
TGGGCCACGTGTTTTA

Relative binding free energy, 0.41 kcal/mol:
GTTTTCACGTGAGAAG

Relative binding free energy, -0.05 kcal/mol:
TGGTGCACGTGGTGAC
TATTGCACGTGCAGTA
TTCGCCACGTGATGGG
AAGGCCACGTGGTATT
ATAGTCACGTGGGGGC
ATTGGCACGTGTCCGT
TGTGCCACGTGTTGTA

Relative binding free energy, 0.34 kcal/mol:
TGTGTCACGTGAATAG
GCGTTCACGTGTCAGG
GACTGCACGTGAGAGG

Relative binding free energy, 0.29 kcal/mol:
TGTTGCACGTGAAGCG
TAGGTCACGTGTGTAA

Relative binding free energy, 0.37 kcal/mol:
CTGATCACGTGAAGGG

Relative binding free energy, 0.39 kcal/mol:
TTTTTCACGTGAAGGT

Relative binding free energy, -0.03 kcal/mol:
GCTGACACGTGGAGGT
GTAGGCACGTGTAAAG
ATGGACACGTGTTCGG

Relative binding free energy, -0.13 kcal/mol:
ATGAGCACGTGGGAAG
GTAGGCACGTGGTGTC
TTTGGCACGTGGTACA
GGTGACACGTGGTAGG

Relative binding free energy, 0.09 kcal/mol:
ACGGTCACGTGGAAGT

Relative binding free energy, 0.02 kcal/mol:
AGGATCACGTGGGCGG
TAAAGCACGTGTAAGT
TAGTGCACGTGGATTT
GATGGCACGTGGTTGC
GATGACACGTGGTGGA

Relative binding free energy, -0.18 kcal/mol:
TTGACCACGTGGGTGC
TGCGGCACGTGCGTGA
GGTCGCACGTGGGCGG
TTTTGCACGTGGGCGA

Relative binding free energy, 0.36 kcal/mol:
GAATTCACGTGTGTCT
TAGCTCACGTGTGATT

Relative binding free energy, 0.3 kcal/mol:
AGGTACACGTGAGGGA

Relative binding free energy, 0.08 kcal/mol:
ATCTCCACGTGTGTGG
TTTTCCACGTGGCGGT
AAAGGCACGTGAAGGG
AGTTGCACGTGTCTCG
TAGGTCACGTGTGTAT
GTATACACGTGATTTA

Relative binding free energy, 0.19 kcal/mol:
ATCTTCACGTGGTGGT
TTTATCACGTGACATT
TTAGACACGTGATATA

Relative binding free energy, 0.16 kcal/mol:
GTTTTCACGTGCTTAT
TTATTCACGTGGATAT
ACTGACACGTGATGGG
GTGCTCACGTGGGAGA

Relative binding free energy, 0.25 kcal/mol:
GATTGCACGTGATTAG

Relative binding free energy, -0.08 kcal/mol:
GTTGACACGTGGTCTT
TTTACCACGTGGTAGT
GGAGGCACGTGGTGGC
GTTAGCACGTGGAATG

Relative binding free energy, 0.2 kcal/mol:
AAGTTCACGTGTGAAG
GTTTACACGTGGTTGG

Relative binding free energy, 0.03 kcal/mol:
AGCGGCACGTGATGCG
TTGGTCACGTGCATGG

Relative binding free energy, 0.35 kcal/mol:
GGGTTCACGTGCTGGA
TTATTCACGTGATGGT

Relative binding free energy, -0.1 kcal/mol:
ATATACACGTGTTCGT
GCGTGCACGTGGTAGG
TATGGCACGTGTCGAT

Relative binding free energy, 0.24 kcal/mol:
TAGTGCACGTGAGATT
TAATTCACGTGGGATT

Relative binding free energy, -0.36 kcal/mol:
AGAGGCACGTGGGCCG

Relative binding free energy, 0.17 kcal/mol:
TGGGACACGTGATGTG
AGAATCACGTGCTGGG
CGACTCACGTGGGTGT

Relative binding free energy, -0.19 kcal/mol:
GGGGGCACGTGCAGAG
CGTGGCACGTGGGGCA

Relative binding free energy, 0.33 kcal/mol:
TTTTTCACGTGGCAGC
TGCCACACGTGAGTGT
TCTTGCACGTGAATTT
TAGGTCACGTGAGGGA

Relative binding free energy, 0.07 kcal/mol:
ATGGCCACGTGACGGT
CATTTCACGTGGTAGG
TTAAACACGTGTTTAA
TAGTACACGTGGAGAG

Relative binding free energy, 0.28 kcal/mol:
TGGTTCACGTGTTGTC
GGAATCACGTGTGTTT
AGTGTCACGTGAGTTG

Relative binding free energy, -0.01 kcal/mol:
GGGGCCACGTGTTTAT
TTGGGCACGTGTGGAT
GTGAACACGTGCGCGG
TTATGCACGTGGTAGT

Relative binding free energy, 0.18 kcal/mol:
ATGATCACGTGATTGT
ATTGACACGTGATAAG
TCCGGCACGTGAAGGG
GGGCTCACGTGGGAGG
CTTTTCACGTGGGACG
AGAGTCACGTGGTTAC

Relative binding free energy, -0.06 kcal/mol:
GGAGCCACGTGGTGAG
ATTGGCACGTGTCTGC
TCGGGCACGTGTCTGG

Relative binding free energy, 0.04 kcal/mol:
ATTTCCACGTGTTGGA
TCGGACACGTGGTGAT
TCGGTCACGTGTGGCG
TAAGGCACGTGTGGAT

Relative binding free energy, -0.11 kcal/mol:
GTGTCCACGTGCTGGT
AGAACCACGTGGTGTG
GTCGGCACGTGGGTTA

Relative binding free energy, 0.14 kcal/mol:
GGGATCACGTGGAGGA
TTTGTCACGTGTACTT
TTTCTCACGTGGGCTG
GATTACACGTGGCGTT

Relative binding free energy, 0.23 kcal/mol:
TGGGTCACGTGACGTA
GGCGGCACGTGAACGG
ATATTCACGTGTGAGA
GGGGGCACGTGAGGTG

Relative binding free energy, 0.38 kcal/mol:
TTGCTCACGTGGATGA
TTGTTCACGTGGCTAA

Relative binding free energy, -0.31 kcal/mol:
CTGCGCACGTGGTGTT

Relative binding free energy, -0.07 kcal/mol:
GGTTGCACGTGGCACG
CTTGCCACGTGTTGGG
ATTTGCACGTGGCAGT
CTTGACACGTGCTTGT
TGTTGCACGTGCAGCT
GTGGTCACGTGGGGTA
ATGCACACGTGGGTGA
TGAGGCACGTGCTGGT
GGGTGCACGTGGTAGA

Relative binding free energy, -0.22 kcal/mol:
TGGGCCACGTGGGTAT

Relative binding free energy, 0.01 kcal/mol:
TTGGCCACGTGGTAAA
AGCGGCACGTGATGGA
GGATGCACGTGGCTTG
TTATACACGTGTTAAT
GATAACACGTGGGAGT
TTAGTCACGTGGGTGG
AAAGTCACGTGTTTAG

Relative binding free energy, 0.46 kcal/mol:
GTTCTCACGTGAGGAT

Relative binding free energy, 0.13 kcal/mol:
TGAGTCACGTGTTCGA
ATAGTCACGTGTAGAG
ATATTCACGTGTGGAG
TTGGTCACGTGCTTTG
TTGCTCACGTGGTTCT
GTTACCACGTGTATTT
AGCGTCACGTGGCGAT

Relative binding free energy, 0.32 kcal/mol:
TTATTCACGTGACTGG
ATTGTCACGTGAAAGA

Relative binding free energy, 0.26 kcal/mol:
AGGTTCACGTGTGTTC
ATTTTCACGTGTCTCG
TGTATCACGTGAAATT
TAGCGCACGTGAAAGG
GTGTTCACGTGCGATA
ATGTTCACGTGGAAGT
GGTTTCACGTGGCGTG
GAGGTCACGTGACGGG
GCTTGCACGTGAAGGT

Relative binding free energy, -0.29 kcal/mol:
TAGACCACGTGGGGTG

Relative binding free energy, 0.31 kcal/mol:
GGGTACACGTGTGACT
GAAATCACGTGTGTGA
GAGTTCACGTGGCCTG
GTGTTCACGTGTTCGA
GGTTGCACGTGATGGG

Relative binding free energy, 0.06 kcal/mol:
TCGAACACGTGCGGGG
AGGGTCACGTGTAGTA
GTAGTCACGTGGTTTC
ATGTGCACGTGTTTTG
GAAATCACGTGGGGGA
GTGATCACGTGCATGT

Relative binding free energy, -0.14 kcal/mol:
TCGCGCACGTGGTATG
TTTCGCACGTGCTGGT

Relative binding free energy, -0.21 kcal/mol:
GTAAGCACGTGGTTTG
ATGCGCACGTGGTAAG
AAAGGCACGTGCAGGT
GGAAGCACGTGGGCGG

Relative binding free energy, 0.11 kcal/mol:
TAAGTCACGTGGTGAA
TTTATCACGTGCAAGT
AATGTCACGTGTTAGG
CTAATCACGTGGTGTT
GATTACACGTGTGTTG

Relative binding free energy, -0.2 kcal/mol:
CTGTACACGTGGGGTA
TAATGCACGTGGTCAG
GGGCGCACGTGGGGTT

Relative binding free energy, 0.21 kcal/mol:
GGCATCACGTGTGGAG
AGGTGCACGTGAGTAT
TTAGTCACGTGTCGTT
AGAGGCACGTGAAAGT

Relative binding free energy, 0.27 kcal/mol:
TGCTGCACGTGAGGAG

Relative binding free energy, -0.28 kcal/mol:
AGTGGCACGTGCCGGT
AGGTGCACGTGGGCGA

Relative binding free energy, 0.1 kcal/mol:
CGAGGCACGTGATTTA
GGGTACACGTGCTGGG
AGGGTCACGTGGCGGA
CTTTACACGTGTGCGT
GATGTCACGTGGTATA

Relative binding free energy, -0.27 kcal/mol:
CCGAGCACGTGGGGGT

Relative binding free energy, 0.44 kcal/mol:
GGTATCACGTGAATGA

Relative binding free energy, 0.05 kcal/mol:
ATGTGCACGTGTTACT
GCTTGCACGTGTCTGG
GGATGCACGTGTACAG
TTTTACACGTGCTGTA
TGCAGCACGTGTATGA

Relative binding free energy, -0.12 kcal/mol:
GGCTGCACGTGGGAGT
TGGCACACGTGGTGTT
ATGGGCACGTGCGAGG
CTAGGCACGTGCGGGA
TGTGACACGTGGGCTT
TAAGGCACGTGGTGAT

Relative binding free energy, -0.04 kcal/mol:
ATCTCCACGTGGGTTG
CTTAACACGTGGTTGT
TCGAGCACGTGTTTTG
GTTTGCACGTGGGCTC

Relative binding free energy, 0.15 kcal/mol:
AATATCACGTGGTACT
CGGGACACGTGATTGG
TGGCTCACGTGTCGTT

Relative binding free energy, 0.12 kcal/mol:
CGGTACACGTGGTATT
ATATTCACGTGGGCGT
AAGGGCACGTGAGGAA
TTGATCACGTGGTGGG

Relative binding free energy, -0.16 kcal/mol:
GATCGCACGTGGGTTT
AACGGCACGTGGGGGC

Relative binding free energy, -0.09 kcal/mol:
TTAGGCACGTGTATAG
CGCGGCACGTGTGTAG
AGTGCCACGTGCGTAT
TGCGGCACGTGGGTGG
ATGTACACGTGGGGGC
